Read counts are not given, so values of variants with three or more changes are uncertain.

Sequences and labels used below:
B1: LINE1-mini (parent)
chain: GGCAGAGCUCAACACAGCGUGGCAAAGUGGCUGUGGCUAGACUGCC

The variants in this data set derive from B1. Description: self-cleavage, relative activity (ratio to wild type); higher = more cleavage; in vitro, sequencing; the parent is a self-cleaving ribozyme.
Regarding G1U A4U A12C A14U G21A G22U, the self-cleavage turned out to be 0.03.

Consider G1U A4G G7A C18G A41C, for which the self-cleavage came to 0.06.

G1C C3U A4U A14C U28C G30A: the self-cleavage amounted to 0.02.

For the variant G1C G17A C45G, the self-cleavage came to 0.03.

In the case of G1C C23A A24C G33U, the self-cleavage came to 0.02.

Turning to G1U A12G G29U, the self-cleavage was found to be 0.

Turning to G1U C3G A11U C18A G22A U34A G44C, the self-cleavage was determined as 0.01.

With G1U A4C G22A U32G C37U, the self-cleavage is 0.14.

Take G1C A25C U38G G44C: the self-cleavage came to 0.

For the variant G1C G5U A16C G27U A41U C42A, the self-cleavage came to 0.04.

Turning to G1C G2C C3G U20C, the self-cleavage is 0.13.

As for G1C C15G A41U C45G, the self-cleavage is 0.01.

Take G1U A14U C18A A39U A41G G44C: the self-cleavage was found to be 0.02.

G1C U20G G35C: the self-cleavage was 0.05.

On to G1C C10A G22A G36C, for which the self-cleavage came to 0.02.

Turning to G1U C10A U43C, the self-cleavage was 0.

With G1C G2U C10G C18A A26U, the self-cleavage worked out at 0.01.

With G1C U9A U20G C31U G35C A41U, the self-cleavage was found to be 0.

For the variant G1U C3A C10A C18U G33A, the self-cleavage was 0.01.

Turning to G1C C3A C10A A11C, the self-cleavage amounted to 0.02.

As for G1C C10A G35U, the self-cleavage was 0.02.

With G1C C18A A26C U32C G36C U38G, the self-cleavage turned out to be 0.01.

For the variant G1C C10U G40C C42G, the self-cleavage was 0.

As to G1C A24U C37G C46G, the self-cleavage was found to be 0.01.

As for G1C U20C C23U, the self-cleavage is 0.14.

Take G1U A26C G30A A41C: the self-cleavage was 0.02.

Take G1C A11U A16G: the self-cleavage came to 0.

Turning to G1U A11C C45G, the self-cleavage worked out at 0.04.

G1C A16C C18U U32A G33A A39G: the self-cleavage came to 0.02.

G1C C8U G29A U34A G40U A41C: the self-cleavage was determined as 0.

In the case of G1U C13U G30A, the self-cleavage came to 0.1.

Take G1U A4G C8A C13U A24C: the self-cleavage is 0.25.

Take G1C A16U U34A G35U: the self-cleavage was determined as 0.

In the case of G1C G5U A11U A12C U20C C23U A26C G30A, the self-cleavage came out at 0.

For the variant G1U A11U A12C A14C G22A C23A G40A, the self-cleavage turned out to be 0.01.

G1U A16C G21U: the self-cleavage came out at 0.03.

In the case of G1C C8G G36A C46U, the self-cleavage is 0.02.

Turning to G1C G2U A25C C31G, the self-cleavage came to 0.03.

Take G1U A6G A12U C18G G22A G27U G35A: the self-cleavage came to 0.01.

Consider G1C C23U G30C U43C, for which the self-cleavage came out at 0.03.

On to G1C A16C U32C G33A, for which the self-cleavage was found to be 0.02.

G1C C10A G22C U32G: the self-cleavage turned out to be 0.01.

For G1U A4G A16C C18U G29C G35C, the self-cleavage was 0.06.

As for G1U A11G A16U, the self-cleavage worked out at 0.01.

For the variant G1C G21C A26C A41G, the self-cleavage amounted to 0.01.

With G1C C8A A24U U32C C42A, the self-cleavage was found to be 0.06.

Turning to G1C A25G G35U, the self-cleavage came to 0.01.

With G1C G7C A25G G40C A41G, the self-cleavage was 0.03.

In the case of G1U C8A G17U, the self-cleavage was found to be 0.04.

In the case of G1U A14U A16G, the self-cleavage turned out to be 0.07.

Consider G1C C13G C15G, for which the self-cleavage worked out at 0.02.

Take G1U C3G G5C C8A G22U U32A U43G: the self-cleavage came out at 0.45.

Take G1U C10G A16G A24G: the self-cleavage turned out to be 0.07.

G1C C10U G17U U32G G35A U38G: the self-cleavage was 0.01.

G1U A6G C8A: the self-cleavage came to 0.09.

As to G1C A11C A12C U28A U43A, the self-cleavage turned out to be 0.

G1U C3G A14G G19U U20G U34G G35U: the self-cleavage is 0.5.

On to G1C U28A U38A, for which the self-cleavage came to 0.05.

In the case of G1C G17U A25U, the self-cleavage amounted to 0.02.

As to G1C G5A U9C A39C C46G, the self-cleavage came out at 0.01.

Take G1C G2U G21A U32C G36C: the self-cleavage stood at 0.03.

As to G1U A12C U20A G33U G35U U38A, the self-cleavage was 0.

Regarding G1U A14C U32G G33U C45U, the self-cleavage amounted to 0.04.

With G1U A14U A24C U28A G35U G40A, the self-cleavage turned out to be 0.01.

On to G1C C8A U20A U32A G36U, for which the self-cleavage amounted to 0.01.

Regarding G1U A14G G19U U28C A39G, the self-cleavage amounted to 0.03.

Regarding G1U A24U C42A, the self-cleavage worked out at 0.04.

Turning to G1C A25C G27U, the self-cleavage stood at 0.07.

As to G1C A16C G27U U28G, the self-cleavage is 0.03.

Regarding G1U A4U A26C C37A, the self-cleavage was found to be 0.12.

On to G1C U9G C23U, for which the self-cleavage came to 0.01.

On to G1C A12U C15G G22U C37A A39U G44C, for which the self-cleavage is 0.01.

With G1U C3A G44A, the self-cleavage worked out at 0.72.

Regarding G1U C8G A26G, the self-cleavage stood at 0.01.

For G1U C3A G35A, the self-cleavage turned out to be 0.33.

Consider G1C G2U G5A A12C, for which the self-cleavage worked out at 0.02.

Consider G1C C18G C31A U43C, for which the self-cleavage was 0.02.

For G1U A12G A41G, the self-cleavage was determined as 0.02.

On to G1U A16C C31U, for which the self-cleavage came out at 0.03.

Take G1C U32G G44C: the self-cleavage is 0.02.

In the case of G1C G5C C15G A26C, the self-cleavage amounted to 0.

With G1U A6U U34A, the self-cleavage worked out at 0.01.

Take G1C U9C C23G G36A C45U: the self-cleavage was 0.03.

With G1U A24U U43G, the self-cleavage amounted to 0.

As to G1U A24U G33A U43A, the self-cleavage was 0.2.

In the case of G1C G21C A25G G33A G35U C37A C46U, the self-cleavage turned out to be 0.01.

In the case of G1U A12U G30C G35U G36U, the self-cleavage was 0.02.

On to G1U C3A A14G G21U, for which the self-cleavage stood at 1.55.

Turning to G1U C10A A24C, the self-cleavage worked out at 0.01.

As for G1U C8G A24C G27C G33A, the self-cleavage amounted to 0.

For G1U A4U G5U, the self-cleavage was 0.11.

For G1U A11G G19A, the self-cleavage stood at 0.04.

On to G1U C8G U34A, for which the self-cleavage amounted to 0.04.

Regarding G1C C13A C31G G44A, the self-cleavage was determined as 0.02.

With G1U A4U G5C C23G G33C, the self-cleavage stood at 0.06.

In the case of G1C C3G G7U A11G C15A G17C A26G A39G, the self-cleavage was 0.03.

Turning to G1C C8U A11U G21A C37G A41U, the self-cleavage stood at 0.01.

On to G1U A26U C31U, for which the self-cleavage came out at 0.03.

Turning to G1C U9C C13U A14U G29U, the self-cleavage amounted to 0.02.

Regarding G1U A4G A12U G17U U32A, the self-cleavage was found to be 0.01.

G1C U28C G36U: the self-cleavage came out at 0.06.

As for G1C A16C C37A, the self-cleavage was determined as 0.03.

Turning to G1C G2A C3U G33C U34G, the self-cleavage stood at 0.06.

As to G1U C8G A14G, the self-cleavage was determined as 0.01.

In the case of G1C G29U G30U G33U G35A U38C, the self-cleavage was determined as 0.07.

Regarding G1U A16U G17A G30A A39C, the self-cleavage is 0.

In the case of G1U C3A C8A G21A C23A, the self-cleavage was found to be 0.51.

As to G1C G17C G44C, the self-cleavage came to 0.08.

Take G1U A4C U9A C10U C46U: the self-cleavage stood at 0.01.

Regarding G1C A11G C46U, the self-cleavage worked out at 0.06.

In the case of G1C A16U A26C G35A, the self-cleavage was 0.03.

Take G1C A14C C15U C18G C37U C42U: the self-cleavage amounted to 0.03.

For G1C C23U A41C, the self-cleavage was found to be 0.02.

G1U C10G A39G: the self-cleavage was 0.02.

Turning to G1C G30C C31G C45G, the self-cleavage was found to be 0.02.

For the variant G1U C8G C31A, the self-cleavage turned out to be 0.07.

Consider G1C G33U U34G C45U, for which the self-cleavage amounted to 0.01.

On to G1U C3A A6C G27C U38G C46U, for which the self-cleavage came to 0.04.

Take G1C A25C C37U C46A: the self-cleavage stood at 0.01.

In the case of G1U C8G A11G A26G C42G, the self-cleavage is 0.03.

With G1C C10G C13U G35U G44U, the self-cleavage came out at 0.

Regarding G1U C8U A14C G22A C42U, the self-cleavage stood at 0.04.

Regarding G1C C3A A12U A14C G19U C42A, the self-cleavage worked out at 0.05.

For G1U A12C G17U A26C G30C G40C, the self-cleavage came out at 0.

In the case of G1U A4C A25G C46U, the self-cleavage is 0.02.

For G1U C8U A14G C15A G17A, the self-cleavage came to 0.2.

Consider G1C G21A C23A G29U, for which the self-cleavage worked out at 0.05.

In the case of G1C C15A U38A A41G, the self-cleavage stood at 0.

For the variant G1U C3A A11U G22U A41C, the self-cleavage was 0.02.

In the case of G1C C10A G30A C31G, the self-cleavage worked out at 0.02.

Consider G1U A4C G5A A24C U28G, for which the self-cleavage turned out to be 0.05.

With G1U C8G G35U G36A, the self-cleavage is 0.04.

Turning to G1C G21U U28A G40A, the self-cleavage was 0.03.

On to G1C C10A C18A G19A U34C G35U G44A, for which the self-cleavage was determined as 0.01.

Take G1C G21A G29A: the self-cleavage was 0.15.

For G1U C8G A12G A25G A26C G44A C45A, the self-cleavage amounted to 0.01.

As for G1U C13A A25G U28G, the self-cleavage turned out to be 0.

For the variant G1U C8G G21C G33A, the self-cleavage stood at 0.02.

Take G1C C3G G27U G30U C37A: the self-cleavage was 0.14.

Turning to G1C U20A G36C A41G, the self-cleavage was determined as 0.

As for G1C G30U G33C, the self-cleavage amounted to 0.02.

With G1C G5C C8G A26G A39G C46U, the self-cleavage was determined as 0.12.

With G1C G2A C3G G21U, the self-cleavage is 0.04.

Consider G1C A12C G40C, for which the self-cleavage was found to be 0.02.

As for G1C G7U G40A C42G C45U, the self-cleavage stood at 0.06.

As for G1C G17U G22A A24U, the self-cleavage was 0.02.

As to G1U C10A A14U G22U, the self-cleavage was 0.02.

In the case of G1U A12G G21A A25G G33C, the self-cleavage is 0.01.

Turning to G1C C13G G19C U20A C45U, the self-cleavage turned out to be 0.02.

As to G1C C15A U38G, the self-cleavage came out at 0.02.

For G1C A11C A26C, the self-cleavage is 0.01.

On to G1C C3U C37A, for which the self-cleavage was determined as 0.02.

In the case of G1C G2A G30A, the self-cleavage was determined as 0.05.

Regarding G1U C8U C10A A14G U32G G36A, the self-cleavage worked out at 0.01.

Consider G1C G2U G5U A16C, for which the self-cleavage came out at 0.03.

Consider G1U C8U U20C, for which the self-cleavage is 0.02.

On to G1U C3G A6C A12C C23G G33A G40U C46U, for which the self-cleavage was 0.01.

G1C U28A G40C U43A: the self-cleavage is 0.01.

For G1C G17A G36U, the self-cleavage amounted to 0.01.

As to G1C A39U C45G, the self-cleavage was 0.08.

Regarding G1C C18U U20C G30U G44U, the self-cleavage was 0.01.

G1U A25U A41G: the self-cleavage was determined as 0.07.

Regarding G1U C13G G19U C23U G30C, the self-cleavage is 0.03.

Turning to G1U A26U U43A, the self-cleavage came out at 0.07.

Regarding G1C C10U A12U C23G A25C G35C, the self-cleavage turned out to be 0.

Turning to G1U C13U A14G C18U U38A, the self-cleavage stood at 0.01.

Consider G1U C10A C13A G22U G33U, for which the self-cleavage came to 0.

(Values after the RNAGym collection of RNA variant scans (doi:10.7554/elife.90254).)
